Compound in the experiment: NC1(c2ccc(-c3nc4ccn5c(=O)[nH]nc5c4cc3-c3ccccc3)cc2)CCC1 [MK-2206]
Briefly: Viability of human cancer cell lines after 72 h of drug (GDSC screen). As to the method:
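Human cancer cell lines in 384-well plates, medium with 10% serum, drug for 72 h over a 256-fold dose range (nine 2-fold or five 4-fold steps up to the top dose). Adherent lines were fixed and stained with the nucleic acid dye Syto60, suspension lines read with resazurin; signal relative to control wells, capped at 0 and 100%. One two-parameter sigmoid per drug and line, fitted in a mixed model over all curves with the slope shared within a line.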

The IC50 comes from the fitted curve, where viability falls to half of the control; a limit (>, <) means that the fit lies beyond the doses tested. AUC is the area under the same curve over the 256-fold range up to the top dose, as a fraction; the more sensitive the line, the further below 1.

Turning to “HT-29 (large intestine, adherent, top dose 4 µM)”, the AUC stood at 0.944 and the half-inhibitory concentration (IC50) (commonly the point on the concentration scale where inhibition reaches its midpoint) was greater than 4000 nM.

On to “HT-115 (large intestine, adherent, top dose 4 µM)”, for which the AUC stood at 0.954 and the IC50 is greater than 4000 nM.

Take “HT-144 (melanoma, adherent, top dose 4 µM)”: the AUC was 0.925 and the IC50 is greater than 4000 nM.

With “HT-1080 (fibrosarcoma, adherent, top dose 4 µM)”, the AUC amounted to 0.95 and the IC50 is greater than 4000 nM.

Regarding “HT-1197 (bladder, adherent, top dose 4 µM)”, the AUC came to 0.935 and the IC50 was greater than 4000 nM.

Regarding “HT-1376 (bladder, adherent, top dose 4 µM)”, the AUC was found to be 0.95 and the IC50 is greater than 4000 nM.

As to “HUTU-80 (digestive system, adherent, top dose 4 µM)”, the AUC came to 0.867 and the IC50 was 2610 nM.

In the case of HeLa (cervix, adherent, top dose 4 µM), the AUC came out at 0.951 and the IC50 is greater than 4000 nM.

On to “Hep 3B2_1-7 (liver, adherent, top dose 4 µM)”, for which the AUC came to 0.787 and the half-inhibitory concentration (IC50) was determined as 1730 nM.

As to Hey (ovary, adherent, top dose 4 µM), the AUC stood at 0.792 and the IC50 was found to be 1700 nM.

For “Hs633T (fibrosarcoma, adherent, top dose 4 µM)”, the AUC stood at 0.869 and the IC50 came out at 2590 nM.

For Hs683 (glioma, adherent, top dose 4 µM), the AUC amounted to 0.796 and the IC50 is 1900 nM.

Consider “Hs746T (stomach, adherent, top dose 4 µM)”, for which the AUC turned out to be 0.849 and the IC50 is greater than 4000 nM.

As for “Hs766T (pancreas, adherent, top dose 4 µM)”, the AUC was determined as 0.819 and the IC50 is 3300 nM.

On to “Hs939-T (melanoma, adherent, top dose 4 µM)”, for which the AUC stood at 0.756 and the IC50 is 1490 nM.

As to “Hs-578-T (breast, adherent, top dose 4 µM)”, the AUC stood at 0.766 and the half-inhibitory concentration (IC50) amounted to 1570 nM.

With “HuCCT1 (biliary tract, adherent, top dose 4 µM)”, the AUC was determined as 0.98 and the IC50 was greater than 4000 nM.

On to HuH-7 (liver, adherent, top dose 4 µM), for which the AUC turned out to be 0.766 and the IC50 amounted to 1470 nM.

Consider “HuO9 (osteosarcoma, adherent, top dose 4 µM)”, for which the AUC was determined as 0.665 and the IC50 came out at 759 nM.

Turning to “HuO-3N1 (osteosarcoma, adherent, top dose 4 µM)”, the AUC is 0.922 and the IC50 was greater than 4000 nM.

Turning to “HuP-T3 (pancreas, adherent, top dose 4 µM)”, the AUC came out at 0.903 and the IC50 was greater than 4000 nM.

Take “HuP-T4 (pancreas, adherent, top dose 4 µM)”: the AUC was 0.877 and the IC50 is greater than 4000 nM.

“IA-LM (large cell lung carcinoma, adherent, top dose 4 µM)”: the AUC is 0.95 and the IC50 is greater than 4000 nM.

Regarding “IGR-1 (melanoma, adherent, top dose 4 µM)”, the AUC was determined as 0.99 and the IC50 is greater than 4000 nM.

Consider “IGR-37 (melanoma, adherent, top dose 4 µM)”, for which the AUC amounted to 0.753 and the IC50 came out at 1230 nM.

Turning to “IGROV-1 (ovary, adherent, top dose 4 µM)”, the AUC worked out at 0.609 and the IC50 is 574 nM.

Take “IHH-4 (thyroid, semi-adherent, top dose 4 µM)”: the AUC is 0.814 and the IC50 came to 1660 nM.

Regarding “IM-9 (myeloma, suspension, top dose 4 µM)”, the AUC was 0.992 and the IC50 is greater than 4000 nM.

As for “IMR-5 (neuroblastoma, adherent, top dose 4 µM)”, the AUC is 0.992 and the IC50 is greater than 4000 nM.

In the case of “IPC-298 (melanoma, adherent, top dose 4 µM)”, the AUC was 0.975 and the IC50 is greater than 4000 nM.

Turning to “IST-MEL1 (melanoma, adherent, top dose 4 µM)”, the AUC was 0.969 and the IC50 was greater than 4000 nM.

Regarding “IST-SL1 (small cell lung carcinoma, semi-adherent, top dose 4 µM)”, the AUC is 0.986 and the IC50 was greater than 4000 nM.

In the case of “IST-SL2 (small cell lung carcinoma, suspension, top dose 4 µM)”, the AUC was 0.728 and the IC50 stood at 1110 nM.

Consider “JAR (urogenital system, adherent, top dose 4 µM)”, for which the AUC worked out at 0.967 and the IC50 was greater than 4000 nM.

As to “JEG-3 (urogenital system, adherent, top dose 4 µM)”, the AUC came to 0.93 and the IC50 was greater than 4000 nM.

“JEKO-1 (B-cell lymphoma, suspension, top dose 4 µM)”: the AUC is 0.733 and the IC50 came out at 1110 nM.

Take JHH-1 (liver, adherent, top dose 4 µM): the AUC came out at 0.652 and the IC50 was 685 nM.

As for JHH-2 (liver, adherent, top dose 4 µM), the AUC was 0.764 and the IC50 came out at 1560 nM.

Regarding JHH-4 (liver, adherent, top dose 4 µM), the AUC came to 0.877 and the IC50 stood at 3990 nM.

As for JHH-7 (liver, adherent, top dose 4 µM), the AUC came out at 0.964 and the IC50 was greater than 4000 nM.

Take JHOS-2 (ovary, adherent, top dose 4 µM): the AUC worked out at 0.807 and the IC50 worked out at 2470 nM.

Regarding JHOS-3 (ovary, adherent, top dose 4 µM), the AUC amounted to 0.889 and the IC50 is greater than 4000 nM.

Consider JHOS-4 (ovary, adherent, top dose 4 µM), for which the AUC came to 0.773 and the IC50 is 2300 nM.

In the case of “JHU-011 (head and neck, adherent, top dose 4 µM)”, the AUC is 0.716 and the IC50 amounted to 1010 nM.

For “JHU-022 (head and neck, adherent, top dose 4 µM)”, the AUC came out at 0.877 and the IC50 is greater than 4000 nM.

For the cell line “JHU-029 (head and neck, adherent, top dose 4 µM)”, the AUC was determined as 0.767 and the IC50 was determined as 1820 nM.

As to “JIMT-1 (breast, adherent, top dose 4 µM)”, the AUC was found to be 0.736 and the IC50 was determined as 1260 nM.

“JJN-3 (haematopoietic neoplasm, suspension, top dose 4 µM)”: the AUC is 0.952 and the IC50 is greater than 4000 nM.

For the cell line “JM1 (B-cell lymphoma, suspension, top dose 4 µM)”, the AUC stood at 0.904 and the IC50 is greater than 4000 nM.

For “JSC-1 (B-cell lymphoma, suspension, top dose 4 µM)”, the AUC was found to be 0.96 and the IC50 was greater than 4000 nM.

On to “JURL-MK1 (chronic myeloid leukaemia, suspension, top dose 4 µM)”, for which the AUC was 0.907 and the IC50 is greater than 4000 nM.

With “JVM-2 (lymphoid neoplasm, suspension, top dose 4 µM)”, the AUC was determined as 0.763 and the IC50 turned out to be 1760 nM.

“JVM-3 (lymphoid neoplasm, suspension, top dose 4 µM)”: the AUC came out at 0.903 and the IC50 is greater than 4000 nM.

As to “JiyoyeP-2003 (Burkitt lymphoma, suspension, top dose 4 µM)”, the AUC was 0.983 and the IC50 is greater than 4000 nM.

In the case of K2 (melanoma, adherent, top dose 4 µM), the AUC amounted to 0.913 and the IC50 is greater than 4000 nM.

In the case of “KARPAS-45 (lymphoblastic leukaemia, suspension, top dose 4 µM)”, the AUC was 0.626 and the IC50 came out at 522 nM.

Turning to “KARPAS-231 (B-cell leukaemia, suspension, top dose 4 µM)”, the AUC came out at 0.524 and the IC50 stood at 287 nM.

As to “KARPAS-299 (anaplastic large cell lymphoma, suspension, top dose 4 µM)”, the AUC was 0.904 and the IC50 is 3740 nM.

In the case of “KARPAS-422 (B-cell lymphoma, suspension, top dose 4 µM)”, the AUC came out at 0.629 and the half-maximal inhibitory concentration (IC50) came to 564 nM.

On to “KARPAS-620 (haematopoietic neoplasm, suspension, top dose 4 µM)”, for which the AUC came out at 0.521 and the half-maximal inhibitory concentration (IC50) turned out to be 282 nM.

With “KARPAS-1106P (B-cell lymphoma, suspension, top dose 4 µM)”, the AUC amounted to 0.873 and the IC50 amounted to 2740 nM.

“KATOIII (stomach, semi-adherent, top dose 4 µM)”: the AUC was determined as 0.904 and the IC50 was greater than 4000 nM.

As for “KCL-22 (chronic myeloid leukaemia, suspension, top dose 4 µM)”, the AUC came to 0.941 and the half-inhibitory concentration (IC50) is greater than 4000 nM.

As for “KE-37 (lymphoblastic leukaemia, suspension, top dose 4 µM)”, the AUC worked out at 0.456 and the IC50 was found to be 195 nM.

On to “KELLY (neuroblastoma, adherent, top dose 4 µM)”, for which the AUC turned out to be 0.968 and the IC50 was greater than 4000 nM.

On to “KG-1 (acute myeloid leukaemia, suspension, top dose 4 µM)”, for which the AUC is 0.99 and the half-inhibitory concentration (IC50) is greater than 4000 nM.

Take KGN (ovary, adherent, top dose 4 µM): the AUC came out at 0.936 and the IC50 was greater than 4000 nM.

Turning to “KINGS-1 (glioma, adherent, top dose 4 µM)”, the AUC was 0.888 and the IC50 is greater than 4000 nM.

Values taken from the supplement of paper PMC4967469.
